Reference: the supplement of paper PMC12632987
The full ranking holds about 1,800 sequences; the median of “median log2 fold change of GCK-ALFA target abundance (FLAG IP / Myc IP barcode read proportion)” is about 0.14, and the lowest 2% start at about -0.84. Some of the results follow.

T1: TRAF2, Q12933
T1 chain: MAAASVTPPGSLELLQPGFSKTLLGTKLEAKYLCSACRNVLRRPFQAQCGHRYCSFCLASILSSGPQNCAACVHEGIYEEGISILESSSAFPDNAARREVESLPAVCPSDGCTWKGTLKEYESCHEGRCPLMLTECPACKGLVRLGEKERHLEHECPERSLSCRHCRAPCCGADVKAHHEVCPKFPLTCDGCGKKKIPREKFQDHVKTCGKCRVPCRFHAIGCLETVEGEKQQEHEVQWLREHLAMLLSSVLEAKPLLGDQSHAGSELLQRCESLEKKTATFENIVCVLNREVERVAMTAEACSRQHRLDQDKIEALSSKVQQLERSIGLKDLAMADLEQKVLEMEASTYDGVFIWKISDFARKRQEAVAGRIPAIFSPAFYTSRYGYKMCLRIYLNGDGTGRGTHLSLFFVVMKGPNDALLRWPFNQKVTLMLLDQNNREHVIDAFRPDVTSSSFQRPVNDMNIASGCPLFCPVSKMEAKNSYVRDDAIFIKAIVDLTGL

B1: traf2_out_12_187_953 (protein)
chain: SVKEELLKAAEAAVKQALKKLEKYAAENPEVQELLKKLKELEKLLKKHPEIAADLLVAASKIIRYMDLLEEGAPQEQIDAALAAAKAALDDALAEAKKLE
B2: traf2_out_18_167_1874 (protein)
chain: SAELEARYQAATDALVEYSAIRRHLLLALEALRESREAALAVLEAALAEFPDSEVLREALRVARERSDEELRAFLEEKAEELQRKANERYKELEALRKEL
B3: traf2_out_1_27_1004 (protein)
chain: STEEERELLRRANREIGRASPEERVEVIVRALEEALARGLESPEHIAVVLILSLGEEEERRRAIEAAEEVLRAAGVSEEAIERMRRRVESGWARLDKLLA
B4: traf2_out_17_162_1652 (protein)
chain: SELEEKKKELEERLKELRERTEELRKKLEKIEEYSKEELSDLMVEASEVKREALEALQEIDELEPLLDPEEAKKWKEELERIIEEAQRIANAFYKQYEAK
B5: traf2_out_17_178_1668 (protein)
chain: DKEEYRKKISEYTDKLIDLTEETGRRLLALAEAEGRLSPEELALLRAAIRSGSANTLLAVAERLAPKLSSAAEAQALLDAFRKEKKELSKKIAEAYKKYE
B6: traf2_out_5_63_2357 (protein)
chain: SEREELTALAREADRLARELLEAARAGDEERVEELLERAAEDPELARLVLGILKGEAKYYKLLGTDPENAKIAEELARRLEELMRRREAAAAAAAAAAAA
B7: traf2_out_20_3_2127 (protein)
chain: EELEKELEKELEKAIKLLEEAAKLASPETAKKLLELAKKLEESRELSPEDRLVEVSAIRREVLALAQEAAAAGDEELAAVLEKAADALNRAMQLLYKIIE
B8: traf2_out_14_149_1230 (protein)
chain: SHMAELLKKAAELTEKIAETLKEVLKLLEAGKLEEAKALLEKSIEELKKESEESGVTVSTLFELEDLLALLKSDPSKAKEAAERALKRAEERAEALKEMA
B9: traf2_out_20_3_2208 (protein)
chain: EELEKELEKELDEALALLKEAQKLADPETAKVLDALIKRLKASRELSYEDRLVELSEIRREVLLLQQQALAAGNKELAAVLAEAADKIQKAMNLVYKIIE
B10: traf2_out_13_95_1065 (protein)
chain: SLETAKKINELAEKAEERALALLDAARAELADDPEAVAALDEARAALETRGIRAAIDVLRRARAAHPEHAAEFDALIAELEAIRRELGREVAKILKEEKE
B11: traf2_out_20_3_2090 (protein)
chain: EELEKKLEEALEEAEKLLKEAIKLADPETAERLKKLLERLKKARELPLEDRLVELSEVRRELLELAEEARAAGREELAALLEEAADKVNRAMNLAYKIIE
B12: traf2_out_1_27_1026 (protein)
chain: SENERLKEVNRLTTELLADPSRTVAEIAEAVVESMRDLDLGTVRHALLVALSMVPLEQRREFALAAAEAAARILGLSPEEVAALRELLLSAVEREEKALA
B13: traf2_out_17_178_1680 (protein)
chain: TKEEERKKISEYTDKLIDLTEETGTALLARAEADGTLSPEELAALRAAIRAGSNRTFLALAERAAPRLADAAAAQAALDAFKKEAAELNKKIAEAYKKYE
B14: traf2_out_13_95_1213 (protein)
chain: SAEAKEKEREIANEYLDRAEAIIDALAAALAGDPAVQPDMDAIRHAFRNYGVNQAIALIREAAKRYPAHKELFDAAAEELEAVRREAGKKFAEIDKEAEA
B15: traf2_out_17_162_1493 (protein)
chain: SELEEKKKKLEKELKELKKKLKELEKKLENIEKLSKEELTDLLVEASELKRKARQLAEEYKKLLKKTGDKELEKLIKEAEELAERAQKIANKIYKEIEKK
B16: traf2_out_17_162_1513 (protein)
chain: SALEEELKKLKEELEKLKKKLEELEKKLKNLEKMSKEELTDLLVEASEARREARLLAEELRKLLPLIGKEEAEKLIKEAEEIAERLQKIANKIYKELEKK
B17: traf2_out_13_95_1177 (protein)
chain: SEETKKKINEIADEMIDKVVAVLDELSEKVKDDPEVKAKLDEIRETAVKKGISTAIHKLRELSKANPEHKELITEALEKIEEIRREAGKKVAEIIKEEEE
B18: traf2_out_11_169_885 (protein)
chain: EEKEKNRKFNDFALELNDKAKEELKAFALELAKKLGLDVKEVEKIFEENKNKSLSYLASALIEYFRKKGKEDAAEKVLEKYEELKDKINKEGTAKMKELE
B19: traf2_out_11_169_874 (protein)
chain: EEAEKNRKLNDFALELNDKAKEELKKFALELAKELGLDVEEVEKIFEENKNKSLSAVASALIRYFKSKGKEEAAEKILEKYEELKEEINKEMSKKIKELE

Target: T1, TRAF2, Q12933
Assay: median log2 fold change of GCK-ALFA target abundance (FLAG IP / Myc IP barcode read proportion) (log2 ratio); each designed protein is fused to an ALFA-tag nanobody in HEK293 cells to bring the named protein to FLAG-tagged glucokinase (GCK); Myc marks an untargeted standard; higher = target protein stabilised (more abundant)
Conditions: target protein: 3xFLAG-MCP-GCK-ALFA reporter; HEK293 landing pad (RPLP)
Method in brief: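 An ALFA-nanobody-fused binder library was recombined into HEK293 landing-pad cells and induced with 2 μg mL^−1 doxycycline. Cells were transfected with a plasmid expressing a FLAG-tagged target and a Myc-tagged standard. After 48 h, lysates underwent anti-FLAG and anti-Myc immunoprecipitation, and circular RNA barcodes were reverse transcribed, amplified and sequenced. Target abundance is the per-binder median log2 ratio of FLAG to Myc barcode read proportions. Barcodes needed ≥10^−7 proportion in both replicates, binders ≥3 barcodes per replicate, and a 10^−6 pseudocount was added; the two replicates were pooled.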

| Binder | median log2 fold change |
| --- | --- |
| B1 | 0.409 |
| B2 | 0.259 |
| B3 | 0.0667 |
| B4 | 0.392 |
| B5 | 0.0161 |
| B6 | -0.227 |
| B7 | -0.168 |
| B8 | 0.108 |
| B9 | 0.309 |
| B10 | -0.0137 |
| B11 | 0.221 |
| B12 | 0.333 |
| B13 | 0.0759 |
| B14 | 0.179 |
| B15 | 0.47 |
| B16 | 0.453 |
| B17 | -0.19 |
| B18 | 0.491 |
| B19 | -0.164 |
